Assay results from PubChem BioAssay AID938 (National Center for Advancing Translational Sciences (NCATS), 2007).
Several values for one entry are separate records, joined by “and”; a condition that tells them apart may be missing. Equal values may be shown once. In all, about 73,000 compounds went through this assay and about 1,800 (2.5%) were called active. The inconclusive results got no clear call from the source; some entries with a clear call stand among them for comparison. Calls follow the shape of the dose curve; as a rule, active = well fitted activation curve with a large enough effect; inconclusive = small, poorly fitted or top-dose-only effect; inactive = no such curve, though single readings can be large or run the other way. No potency is given beside an inconclusive call; the fits are too rough.

Test: qHTS Assay for Agonists of the Thyroid Stimulating Hormone Receptor: Activators of Intracellular cAMP Concentrations in Parental HEK 293; also: nearly all actives have a fitted effect of over 55% in size; as to activation: % of control where 0% means no effect
Conditions: parental HEK293 CNG cAMP sensor, membrane potential fluorescence; activation: at 57.1 µM (top of the series) unless noted
Outline: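 Parental HEK 293 cells stably expressing a modified CNG channel (no TSHR) report cAMP rise as membrane depolarization. Membrane potential dye with 100 uM RO 20-1724 was loaded for 60 min at room temperature, then compound added for 30 min; fluorescence read at 590 nm.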
Potency is read from the fitted curve at half-maximal effect; tags tell the direction and shape of the fitted curve.

Row | Structure (SMILES) | Potency | activation
1 | COc1ccc(-n2c(=O)c(CCc3ccccc3)nc3cncnc32)cc1 | inconclusive [activator, partial curve] | –
2 | COc1cccc(C2CC(c3cccc(Br)c3)n3ncnc3N2)c1 (centres undefined) | inactive | –
3 | Cc1ccc2[nH]c(=O)c(C(c3nnnn3CC3CCCO3)N3CCCc4ccccc43)cc2c1 (centres undefined) | inactive | –
4 | Cc1cc(C)n(C(=O)C(C)N2C(=O)c3ccccc3C2=O)n1 (centres undefined) | inconclusive [activator, single point] | –
5 | Cc1cccc(S(=O)(=O)c2c(N)n(Cc3ccco3)c3nc4ccccc4nc23)c1 | inactive | –
6 | Cc1nnsc1NC(=O)OCC(C)C | active: 12.6 µM | –
7 | CC(C)C(c1nnnn1C1CCCC1)N1CCCc2ccccc21 (centres undefined) | inactive | –
8 | Cc1sc(NC(=O)CSc2nnc(COc3ccccc3)n2C)c(C#N)c1C | active: 6.31 µM | –
9 | Cc1ccc(C)c(N2CCN(C(=O)CCCOc3cc(=O)n(C)c4ccccc34)CC2)c1 | inconclusive [activator, single point] | –
10 | Cc1ccc2oc(=O)n(Cc3ccccc3OC(C)C)c2c1 | active: 25.1 µM | –
11 | CC(C)CCNC(=O)C(c1ccco1)N(CC1CCCO1)C(=O)Cn1nnc2ccccc21 (centres undefined) | inconclusive [activator, partial curve] | –
12 | CCc1cccc2c(C#N)cn(CCOc3ccccc3OC)c12 | inconclusive [activator, partial curve] | –
13 | O=C1C[C@@H](O)[C@@H](O)[C@H]2[C@@H]3C(=O)N(c4cccc(Oc5ccccc5)c4)C(=O)[C@@H]3CC[C@H]12 | – | inactive: -0.202% [at 11.4 µM] and inactive: -3.1% [at 11.4 µM]
14 | CCOc1ccccc1NC(=O)c1cc(Cl)ccc1NC(=O)c1ccco1 | active: 25.1 µM | –
15 | O=c1c(CCc2ccccc2)nc2cncnc2n1-c1ccccc1 | inconclusive [activator, single point] | –
16 | O=C(O)[C@@H](O)[C@@H](O)[C@@H](O)[C@@H](O)c1nc2ccccc2s1 | – | inactive: 4.61% [at 11.4 µM]
17 | CCCCCn1c(CN2CCCCC2CC)nc2c1c(=O)n(C)c(=O)n2C (centres undefined) | inconclusive [activator, partial curve] | –
18 | CN(C)CCCN1c2ccc3ccccc3c2Sc2cccc(Cl)c21 | – | inactive: -8.67% [at 11.4 µM]
19 | Cc1cc(NC(=O)COc2nnc(-c3ccccc3)c3ccccc23)no1 | inconclusive [activator, single point] | –
20 | CC(C)CC(OC(=O)c1ccco1)C(=O)NC1CCCCC1 (centres undefined) | inconclusive [activator, partial curve] | –
21 | O=C(NCC(c1ccc(F)cc1)N1CCOCC1)c1ccc(Br)o1 (centres undefined) | active: 25.1 µM | –
22 | Cc1ccc2c(c1)nnn2C1CCN(C(=O)C2CCCCC2)CC1 | inconclusive [activator, single point] | –
23 | O=C(NC1CCCCCC1)c1cc(S(=O)(=O)N2CCOCC2)ccc1N1CCCCC1 | active: 25.1 µM | –
24 | COCCN1C(=O)c2ccccc2C(C(=O)NCCN(C)C)C1c1ccc(F)cc1 (centres undefined) | inconclusive [activator, partial curve] | –
25 | O=C(Nc1cccc(Cl)c1N1CCCC1)c1ccc(Br)o1 | active: 25.1 µM | –

Row | Structure (SMILES) | Potency | activation
26 | COc1ccc2c(-c3ccccc3)cc(N3CCOCC3)nc2c1 | inconclusive [activator, single point] | –
27 | O=C(O)CCC/C=C\C[C@@H]1CO[C@H](C(F)(F)F)O[C@@H]1c1ccccc1O | inactive | –
28 | CC1=C(C(=O)OCc2ccc3c(c2)OCO3)C(c2ccc(F)cc2)NC(=O)N1 (centres undefined) | inconclusive [activator, partial curve] | –
29 | Cc1nnc(NC(=O)C2COc3ccccc3O2)s1 (centres undefined) | inactive | –
30 | Cc1cccc(N(CC(=O)NC2CCCCC2)C(=O)c2c(C)noc2C)c1 | active: 15.8 µM | –
31 | COC(=O)c1ccc(CSc2ncnc3sc(C)c(C)c23)o1 | inconclusive [activator, single point] | –
32 | COc1ccc(-c2nnc(SCC(=O)c3cc(C)n(Cc4cccs4)c3C)o2)cc1 | inconclusive [activator, partial curve] | –
33 | CN(C)c1ncc2nc(CCc3ccccc3)c(=O)n(CCC#N)c2n1 | inconclusive [activator, partial curve] | –
34 | Cc1cccc(C)c1NC(=O)c1c(-c2ccccc2)noc1C | inconclusive [activator, single point] | –
35 | COc1ccc(CNc2cc(-c3ccccc3Cl)ncn2)c(OC)c1 | active: 20 µM | –
36 | C=C1C(=O)C=C2CN(C(=O)c3ccccc3)[C@@](Cc3ccc(F)cc3)(C(=O)OC)[C@@H]12 | inconclusive [activator, single point] | –
37 | CCCn1c(=O)c2ccccc2n2c(SCC(=O)NCc3cccs3)nnc12 | active: 20 µM | –
38 | Cc1ccc2c(c1)[nH]c1c(=O)n(CCN3CCCCC3)cnc12 | inconclusive [activator, single point] | –
39 | O=C(COc1ccccc1)Nc1cccc(-c2nnc(-c3ccccc3)o2)c1 | active: 25.1 µM | –
40 | CCOC(=O)c1csc(NC(=O)c2cc(OC)c(OC)c(OC)c2)n1 | inconclusive [activator, single point] | –
41 | CSCC[C@H](NC(=O)OC(C)(C)C)C(=O)N1CCC(C(=O)N[C@H](C(=O)O)C(C)C)CC1 | inconclusive [activator, single point] | –
42 | Cc1nn(C(=O)c2cccnc2)c(C)c1C | active: 6.31 µM | –
43 | Cn1c(=O)c2c(nc(NCCCO)n2Cc2cccc(Br)c2)n(C)c1=O | inconclusive [activator, single point] | –
44 | O=C(Cc1ccccc1)NCCc1cn2ccsc2n1 | inconclusive [activator, full curve] | –
45 | Cc1ccccc1-c1cc(-c2ccccc2O)n[nH]1 | inconclusive [activator, single point] | –
46 | NCCS(=O)O | inconclusive [activator, single point] | –
47 | Cc1cc(=O)[nH]c(SCCOc2ccc(OC(C)C)cc2)n1 | inactive | –
48 | O=C(COc1ccccc1Cl)N1CCN(c2ncccn2)CC1 | inactive | –
49 | CC(Sc1nc2ccccc2c(=O)n1Cc1ccco1)C(=O)c1ccccc1 (centres undefined) | active: 15.8 µM | –
50 | CC1=CC(=O)CC(C)(C)[C@]1(O)/C=C\C(C)=C\C(=O)O | – | inactive: 3.31% [at 11.4 µM]

Row | Structure (SMILES) | Potency | activation
51 | Cc1ccc(C)c(-n2c(SCC(=O)Nc3nnc(C)s3)nnc2-c2ccoc2C)c1 | active: 2.51 µM | –
52 | CC12C=C(/C=C/c3ccc(Br)cc3)C(C)(C1)C(c1ccc(Br)cc1)CC2=O (centres undefined) | – | inactive: 5.32% [at 11.4 µM]
53 | O=C(c1ccc(Br)o1)N(c1ccc(Br)cc1)C1C=CS(=O)(=O)C1 (centres undefined) | inconclusive [activator, single point] | –
54 | COc1ccc(-c2nsc3c(N4CCN(C(=O)c5ccco5)CC4)ncnc23)cc1 | inconclusive [activator, single point] | –
55 | Nc1ncnc2c1ncn2[C@@H]1O[C@@H](CO)[C@H](O)[C@@H]1O | active: 25.1 µM | –
56 | Cn1nnnc1Sc1ncnc2scc(-c3ccccc3)c12 | inconclusive [activator, single point] | –
57 | COC(=O)[C@@]1(Cc2ccc(OC)cc2)[C@H]2c3cc(C(=O)N(C)C)n(C)c3C[C@H]2CN1C(=O)c1ccccc1 | inconclusive [activator, single point] | –
58 | Cn1c(-c2ccc3ccccc3n2)nc2cnccc21 | inactive | –
59 | CC(=O)Nc1ccccc1N(C)S(=O)(=O)c1ccc(C)cc1 | inconclusive [activator, partial curve, poor fit] | –
60 | Oc1ccc2nc(Cc3ccccc3)[nH]c2c1 | inconclusive [activator, single point] | –
61 | C=CCSc1nnc(CSc2nc3sc4c(c3c(=O)[nH]2)CCCC4)n1-c1ccccc1 | inconclusive [activator, single point] | –
62 | Cc1nc2cnc(N(C)C)nc2n(C)c1=O | inconclusive [activator, full curve, poor fit] | –
63 | COc1ccc2cc(C(=O)CCC(=O)O)ccc2c1 | – | inactive: 1.54% [at 11.4 µM]
64 | Cc1ccccc1-c1coc2cc(O)ccc2c1=O | inactive | –
65 | CCOc1ccc(C(C)C)cc1S(=O)(=O)n1nc(C)cc1C | inconclusive [activator, partial curve] | –
66 | COc1ccc(Oc2ncc3nc(C)c(=O)n(CCc4ccccc4)c3n2)cc1 | inconclusive [activator, full curve] | –
67 | N#Cc1c(N2CCN(C(=O)c3ccco3)CC2)nc(-c2ccccc2)c2c1CCCC2 | active: 15.8 µM | –
68 | COc1ccc2[nH]cc(CCNc3ncncc3-c3ccccc3C)c2c1 | inconclusive [activator, single point] | –
69 | CCOc1ccccc1OCc1nn2c(-c3ccc(C)cc3)nnc2s1 | active: 25.1 µM | –
70 | Fc1cc(Br)ccc1Nc1nc2ccccc2n2nnnc12 | inconclusive [activator, single point] | –
71 | CCOC(=O)c1cnc(SCc2nc(N)nc(Nc3ccccc3)n2)nc1N | inactive | –
72 | COc1ccc(C(C)=O)cc1COC(=O)c1ccc2c(c1)OCO2 | active: 31.6 µM | –
73 | O=C(CSc1nnc(-c2cccs2)o1)NCC1CN(Cc2ccccc2)CCO1 (centres undefined) | inactive | –
74 | CC1CCCc2sc3nc(N4CCN(CCO)CC4)n4ncnc4c3c21 (centres undefined) | inconclusive [activator, partial curve] | –
